# Assay results from article PMC4336329 (PLoS ONE, 2015).
# In all, about 310,000 compounds went through this assay and about 2,200 (0.71%) showed an effect of 50% or more. The effect is printed as a negative number. This is one part of the list.
# Molecular target: human ether-à-go-go-related gene (hERG) potassium channel (human, UniProt Q12809)
# Experiment: primary screen, population patch clamp on CHO cells stably expressing hERG
# human ether-à-go-go-related gene (hERG) potassium channel, sequence (Q12809 whole entry, looked up): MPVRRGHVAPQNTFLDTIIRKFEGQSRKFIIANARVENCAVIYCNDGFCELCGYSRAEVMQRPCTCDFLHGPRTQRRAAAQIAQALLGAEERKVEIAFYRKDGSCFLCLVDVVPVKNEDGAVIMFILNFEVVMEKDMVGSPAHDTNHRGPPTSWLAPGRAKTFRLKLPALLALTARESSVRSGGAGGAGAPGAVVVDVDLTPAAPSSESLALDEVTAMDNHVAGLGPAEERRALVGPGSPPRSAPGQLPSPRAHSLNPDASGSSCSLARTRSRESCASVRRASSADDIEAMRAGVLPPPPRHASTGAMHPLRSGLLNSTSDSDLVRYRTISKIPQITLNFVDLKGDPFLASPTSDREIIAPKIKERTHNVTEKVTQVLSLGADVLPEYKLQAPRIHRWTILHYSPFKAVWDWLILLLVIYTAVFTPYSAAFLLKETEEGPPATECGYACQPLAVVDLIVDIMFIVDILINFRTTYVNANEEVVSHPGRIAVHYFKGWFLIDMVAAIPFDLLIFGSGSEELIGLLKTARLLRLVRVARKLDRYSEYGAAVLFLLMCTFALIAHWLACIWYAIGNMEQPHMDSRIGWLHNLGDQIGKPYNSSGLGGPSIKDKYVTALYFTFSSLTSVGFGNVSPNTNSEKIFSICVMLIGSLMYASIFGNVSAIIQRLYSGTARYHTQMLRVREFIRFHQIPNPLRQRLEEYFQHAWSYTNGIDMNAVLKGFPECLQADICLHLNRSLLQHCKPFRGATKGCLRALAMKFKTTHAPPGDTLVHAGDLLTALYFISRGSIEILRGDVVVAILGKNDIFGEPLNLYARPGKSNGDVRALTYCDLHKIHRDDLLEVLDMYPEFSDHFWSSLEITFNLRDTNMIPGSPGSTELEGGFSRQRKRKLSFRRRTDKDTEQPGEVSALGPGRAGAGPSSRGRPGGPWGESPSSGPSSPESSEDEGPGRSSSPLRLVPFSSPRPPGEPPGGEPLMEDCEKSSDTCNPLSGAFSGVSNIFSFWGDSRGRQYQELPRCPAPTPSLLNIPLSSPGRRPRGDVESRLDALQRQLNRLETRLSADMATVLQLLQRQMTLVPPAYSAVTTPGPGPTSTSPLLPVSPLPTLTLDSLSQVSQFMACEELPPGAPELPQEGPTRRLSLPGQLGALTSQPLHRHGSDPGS
row,SMILES,"hERG current change (%, negative = inhibition) at 1uM [%]"
1,Clc1cc(Cl)c2nc(N3CCOCC3)sc2c1,-0.122
2,O=C(CN1C(=O)C(=O)N(C2CCCC2)C1=O)Nc1ccc(Cl)cc1C(F)(F)F,12
3,Cc1csc(=S)n1-c1ccccc1,11.5
4,Cc1ccccc1S(=O)(=O)Cc1ccc(C(=O)N2CCN(c3ccccc3F)CC2)o1,18.1
5,CC1N=C(N)C(c2nc3ccccc3n2C)=C1O (stereo not shown),8.06
6,Cc1nnc(NNS(=O)(=O)c2ccc(Cl)cc2)[nH]c1=O,5.2
7,COc1ccccc1C(=O)Nc1c2c(nn1-c1cccc(C)c1C)CS(=O)C2 (stereo not shown),-3.22
8,CCCC(=O)Nc1ccc(C(=O)NNC(=S)NC(=O)c2cccs2)cc1,4.72
9,Cn1ncc([N+](=O)[O-])c1C(=O)Nc1ccn(Cc2ccccc2F)n1,0.924
10,CCOC(=O)C1(CCOC)CCN(Cc2ccc(C3CCCCO3)s2)CC1 (stereo not shown),4.44
11,Cc1ccc(N=Nc2cc(C)ccc2O)c(C)c1,6.78
12,COC(=O)[C@H]1C[C@H](C(=O)O)[C@@H](C)C1(C)C,9.34
13,O=C(CSc1nc2ccccc2s1)NC1CCCc2ccccc21 (stereo not shown),11.2
14,COc1ccc(CCNS(=O)(=O)c2cn(C)c(=O)n(C)c2=O)cc1,21.7
15,O=[N+]([O-])c1cc(CN2CCC(O)CC2)ccc1Cl,8.39
16,Cc1ccc(-n2ncc3c2CC(C)(C)CC3NC(=O)c2ccccn2)cc1 (stereo not shown),5.27
17,CCCNC(=O)CS(=O)Cc1nc(-c2cccc(OC)c2)oc1C (stereo not shown),11.3
18,O=C(c1cc(COc2ccc(-n3cncn3)cc2)on1)N1CCCC1,4.01
19,Cc1cc(Cl)ccc1N(CC(=O)NCc1ccc2c(c1)OCO2)S(C)(=O)=O,3.99
20,Cc1ccc2nc(-c3ccc(NC(=O)CSc4nc(N)cc(=O)[nH]4)cc3)sc2c1,2.36

row,SMILES,"hERG current change (%, negative = inhibition) at 1uM [%]"
1,Cc1ccccc1N1CC(C(=O)O)CC1=O (stereo not shown),13.8
2,COc1ccc(Cl)cc1NC(=O)CN(C)CC(=O)NC(C)c1ccccc1 (stereo not shown),6.51
3,O=S(=O)(Nc1nc2ccccc2nc1-[n+]1ccccc1)c1ccc(Cl)cc1.[Cl-],16.9
4,Cc1csc2nc3cc(C(N)=O)ccc3c(=O)n12,10.2
5,O=C1c2ccccc2C(=O)N1CCc1c[nH]c2ccccc12,7.76
6,O=C1CCCCC1C(=O)c1cn(-c2ccc(Cl)c(Cl)c2)nn1 (stereo not shown),10.2
7,O=C(N/C(=C\c1ccc(Cl)cc1)C(=O)N1CCOCC1)c1ccc([N+](=O)[O-])cc1,-88.2
8,O=C(CSc1nnnn1C1CC2CCC1C2)Nc1ccnc2ccccc12 (stereo not shown),12.2
9,COc1ccc(C2=NOC(C)(c3nnc(Cc4ccccc4)o3)C2)cc1 (stereo not shown),6.97
10,O=C(c1ccc2ccccc2c1)N1CCCCC1,9.33
11,Fc1ccc(NC(=S)NN=C2CCCCCC2)cc1,12.1
12,Cc1ccc(-c2c(C)c(-c3ccc(F)cc3)nc(N)c2C#N)o1,-1.47
13,COc1cccc(C2=CC(=O)CCC2)c1OC,17.6
14,COc1cccc(NC(=S)N2CCN(S(=O)(=O)c3ccc(F)cc3)CC2)c1,5.32
15,Cc1ccc(S(=O)(=O)N2CCN(c3ccc([N+](=O)[O-])c(Sc4nncn4C)c3)CC2)cc1,-8.87
16,Oc1nc(-c2ccc(Cl)cc2)n2ccncc12,27.5
17,CCOC(=O)CSC1=C(C#N)C(c2ccc(Cl)cc2)C(C(=O)OC)C(=O)N1 (stereo not shown),7.34
18,CCCCOC(=O)Nc1nc2ccccc2s1,-3.96
19,COc1cccc(CNC(=O)CN(C)S(=O)(=O)c2cnc[nH]2)c1,15.3
20,O=C(CN1CCN(c2ccccn2)CC1)NCCc1ccccc1,1.52

row,SMILES,"hERG current change (%, negative = inhibition) at 1uM [%]"
1,O=C(O)C1C2CCC(C2)C1C(=O)Nc1cc(F)ccc1F (stereo not shown),-1.26
2,CN(CC(=O)Nc1c(Cl)cccc1Cl)C(=O)c1cccc(-n2cccc2)c1,-0.706
3,CC(C)(C)NC(=O)c1ccc(NC(=O)C2COc3ccccc3O2)cc1 (stereo not shown),10.5
4,COc1cccc(CN2CC(C(=O)NCCOc3ccccc3F)CCC2=O)c1 (stereo not shown),9.67
5,Cn1cc(C(=O)Nc2ccc(F)c(F)c2)cn1,16.6
6,O=C(Cn1nnc(-c2cccs2)n1)N1c2ccccc2Sc2ccc(C(F)(F)F)cc21,13.5
7,COc1ccccc1-c1nnc(SC(C(=O)c2c[nH]c3ccccc23)c2ccccc2)n1C (stereo not shown),18.3
8,C[C@H]1CN=C2N(CCNC(=O)CCC3CCCCC3)[C@H](Cc3ccc(O)cc3)CN21,14.3
9,C=C(c1ccc(OC)cc1)c1ccc(OC)cc1,3.04
10,CCOC(=O)c1cccc(NC(=O)C2CCCN(c3nnc(N4CCCC4=O)s3)C2)c1 (stereo not shown),9.44
11,CC(NC(=O)c1cc([N+](=O)[O-])cc([N+](=O)[O-])c1)c1ccc(-n2ccnc2)cc1 (stereo not shown),-18
12,COc1cc(C(=O)Nc2ccn(C)n2)ccc1OC(F)F,5.7
13,O=C(CSc1nnc(NC(=O)c2ccccc2C(=O)O)s1)Nc1ccccc1Cl,19.6
14,CC(=O)N=c1scc(-c2ccccc2)n1-c1cccc(O)c1,16
15,CON1C(=O)C(=O)N(OC)C(C)(C)C1C (stereo not shown),0.752
16,Cc1c(Cl)cccc1NC(=S)N(Cc1ccccc1)Cc1cccnc1,11.5
17,CC(C)c1nc(SCC(=O)N2c3ccccc3CC2C)c2ccccc2n1 (stereo not shown),-2.81
18,Cn1c(NNC(=O)/C=C/c2ccc3c(c2)OCO3)cc(=O)n(C)c1=O,14.3
